Source: article PMC4336329 (PLoS ONE, 2015)
The whole screen tested about 310,000 compounds, of which about 2,200 (0.71%) showed an effect of 50% or more. Effects have a minus sign here. This is one part of the list.

molecular target: human ether-à-go-go-related gene (hERG) potassium channel (human, UniProt Q12809); experiment: primary screen, population patch clamp on CHO cells stably expressing hERG
Sequence (Q12809 whole entry, looked up): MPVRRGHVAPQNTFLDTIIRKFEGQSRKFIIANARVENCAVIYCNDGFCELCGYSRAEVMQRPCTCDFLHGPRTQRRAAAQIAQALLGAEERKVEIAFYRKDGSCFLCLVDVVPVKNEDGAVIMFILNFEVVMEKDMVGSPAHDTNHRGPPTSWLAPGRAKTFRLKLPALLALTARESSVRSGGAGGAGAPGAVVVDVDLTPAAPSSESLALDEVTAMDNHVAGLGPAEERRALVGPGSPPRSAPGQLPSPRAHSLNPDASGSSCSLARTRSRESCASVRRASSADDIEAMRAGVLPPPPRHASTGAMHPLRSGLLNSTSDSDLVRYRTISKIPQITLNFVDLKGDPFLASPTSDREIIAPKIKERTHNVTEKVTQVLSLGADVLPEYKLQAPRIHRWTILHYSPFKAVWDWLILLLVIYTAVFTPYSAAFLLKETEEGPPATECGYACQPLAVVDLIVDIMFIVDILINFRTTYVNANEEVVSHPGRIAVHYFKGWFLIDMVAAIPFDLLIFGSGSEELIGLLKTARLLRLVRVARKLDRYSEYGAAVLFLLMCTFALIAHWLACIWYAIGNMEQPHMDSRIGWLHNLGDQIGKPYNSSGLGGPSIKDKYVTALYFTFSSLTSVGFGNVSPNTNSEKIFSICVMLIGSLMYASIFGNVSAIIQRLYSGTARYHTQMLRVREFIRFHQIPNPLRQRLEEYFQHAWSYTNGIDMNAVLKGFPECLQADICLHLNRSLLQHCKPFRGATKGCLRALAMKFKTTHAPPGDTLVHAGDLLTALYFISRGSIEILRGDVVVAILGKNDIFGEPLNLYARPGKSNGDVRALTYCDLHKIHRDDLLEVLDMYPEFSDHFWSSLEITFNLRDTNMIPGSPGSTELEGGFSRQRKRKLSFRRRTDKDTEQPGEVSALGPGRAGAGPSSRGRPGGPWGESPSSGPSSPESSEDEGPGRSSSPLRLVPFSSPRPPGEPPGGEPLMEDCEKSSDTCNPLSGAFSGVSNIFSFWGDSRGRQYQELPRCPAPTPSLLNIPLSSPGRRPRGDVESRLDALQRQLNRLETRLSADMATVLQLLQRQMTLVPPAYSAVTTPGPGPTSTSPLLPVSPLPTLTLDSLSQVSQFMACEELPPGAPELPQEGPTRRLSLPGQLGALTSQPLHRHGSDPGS

Row | SMILES | hERG current change (%, negative = inhibition) at 1uM [%]
1 | OCCN1CN=C(Nc2nc3ccccc3s2)NC1 | -7.88
2 | CCN1CCN(C(=O)c2ccc3c(c2)N(Cc2ccc(F)cc2)C(=O)c2ccccc2S3=O)CC1 (stereo not drawn) | 4.29
3 | Cc1cc2cc(C)c(NCCNC(=O)c3ccccc3F)nc2cc1C | 7.19
4 | CCN(CC)S(=O)(=O)c1cccc2cc(C(=O)O)c(O)cc12 | 5.84
5 | CC1c2[nH]c3ccccc3c2C[C@H]2C(=O)N(CCCO)CC(=O)N12 (stereo partly drawn) | 17.6
6 | COc1cccc(C2c3[nH]c4ccccc4c3C[C@H]3C(=O)N(c4ccccc4C(=O)NCCCN4CCOCC4)C(=O)N23)c1 (stereo partly drawn) | 8.6
7 | CN(C)S(=O)(=O)c1ccc2c(c1)nc(CCC(=O)Nc1ccc(N3CCOCC3)cc1)n2C | 11.4
8 | CCOC(=O)C(=O)Nc1nnc(C2CCCCC2)s1 | 7.59
9 | O=C(Nc1nc2ccc(Cl)cc2s1)c1cccc(N2C(=O)CCC2=O)c1 | 7.77
10 | COc1ccc(-c2csc(NC(=O)Cc3cc(OC)c(OC)c(OC)c3)n2)cc1OC | 7.25
11 | CC(C)c1nnc(SCC(=O)NCCC2=CCCCC2)n1N | -8.88
12 | Cc1ccc(S(=O)(=O)N2CCCC(c3nc4c(nnn4Cc4ccc5c(c4)OCCO5)c(=O)[nH]3)C2)cc1 (stereo not drawn) | 4.8
13 | Cc1cc(C)c(C)c(S(=O)(=O)NC2CCCCC2)c1C | 11.4
14 | COc1ccc(CNC(=O)C2Cc3cc(S(=O)(=O)N4CCCC4)ccc3N2C(C)=O)c(OC)c1 (stereo not drawn) | 15
15 | CC(C)(C)C1CCC(OC(=O)CN2CCCCC2)CC1 (stereo not drawn) | 2.3
16 | Cc1nc2cc(C(F)(F)F)ccc2n1C1CCN(CC(=O)N2CCCC2)CC1 | 24.7
17 | Cc1ccn2cc(CCNC(=O)COc3ccccc3)nc2c1 | -2.48
18 | O=C1NCC(=O)N(Cc2ccccc2)/C1=C/c1ccccc1 | 6.63
19 | CN(C)c1ccc(CNS(=O)(=O)c2ccc3c(c2)NC(=O)CS3)cc1 | 1.58
20 | COc1ccc(C)cc1NC(=O)COC(=O)c1ccc2c(c1)OCCO2 | 9.74
21 | CCOC(=O)C1=C(C)Nc2nnnn2C1c1ccccc1Cl (stereo not drawn) | 2.1
22 | CCCC(C)C(=O)Nc1nc(C)c(-c2csc(Nc3cc(Cl)ccc3C)n2)s1 (stereo not drawn) | 6.73
23 | Cc1cc(C)nc(N/N=C/c2ccccc2Cl)n1 | 8.88
24 | O=C(Nc1ccccc1)c1cnc[nH]1 | 7.77
